# Data published in the supplement of paper PMC12632987.
# Whole data set: some 4,500 sequences, median “median log2 fold change of GCK-ALFA target abundance (FLAG IP / Myc IP barcode read proportion)” near 0.078, cut for the lowest 2% near -0.6. This is one part of the list.
# B1: GBRAP_166_4905 (protein)
# chain: SREEEIKRLIEEIEELIERYKEADEEEQLELLIEIGEKLRELKKLGMPLEEILELVRRALEAAKEAGRSVRVAAGIIAEVADFDEEEIEKIDEIAREVEA
# B2: GBRAP_57_6446 (protein)
# chain: SARLEAIREAAARLIALLEAGAPEEEIREAARELMDLLSEDTVLLVAAILDPEAAEGLDLEELRELVVERLIELRRTEGPAAAIRVVEAALAQEELDAEE
# B3: GBRAP_160_4510 (protein)
# chain: SEKLEKIKKDIEEARKEIIEEIDEGTVEEAQVVAAVELGEVIMDLIEDESFSDEAVDEAAKIRDELIEELKKNKNASKEELKKIVEEKTEELIKKLEKLS
# B4: GBRAP_137_3617 (protein)
# chain: KTIHITFSEEDGTAIATIEASPEVDHEKLLELVEEVAKETGTQVVEAYDEDSPVRIIDLVGTREQIIAATKLLIKRLKEELGAEVVLSSDGAEDLVEAVR
# B5: GBRAP_160_4050 (protein)
# chain: EEEKEELLEMVDEAEAEILEVLAEEGAAAALTMFAGRFGEIIMEAAEDEEASDELVDELAEIEDAGLAALRANADASPEELAAIIRDAAARIKEAIKKHL
# B6: GBRAP_128_3569 (protein)
# chain: SAEEKLKKAKELLEKIVESDVEEARVLARELVRLMAEADPETREKITELALEYLPKLTAEKLDVLADVLREERPKADPDTANLLAEIEVEALNEREEKEE
# B7: GBRAP_14_3875 (protein)
# chain: MEEIKKIIDDMVAEIVAFVKEVSPEIAPEVEKRLNEIREKTLARIEETGDPLAAFDAMEEEMIAAMEEITADLPEEDRTAILAELRVRLAEARYRIDEVL
# B8: GBRAP_26_5455 (protein)
# chain: IEAAVDAAEERLLATFDEVLDPETAAAMKTVVLTEAEEIEEVVEAHPNDAAAIKAAVDAAVADIREEMDLLEVPADARAKITAALDAEAARIKAAIEAAA
# B9: GBRAP_43_5778 (protein)
# chain: SKELVDGAYEAALLAAEEPEIDDDTKVKMINLAFELAADEGYIDEEKLEKIIEAAGKSLSAEALKKIRDRLLKIAKEHPELKEEFEKAAEKVEKYIKAKE
# B10: GBRAP_95_7061 (protein)
# chain: EEDKEAALDDVLAYAARVELGDESAVPRLAAALVEALKLGVLEEAAKELSDEVLLRALREAADRADPETVLALIEAALKATGNEELAAAARAYLEARLAA
# B11: GBRAP_80_6834 (protein)
# chain: MEEELEAVVKELEKVDKEIAKLVREVIEIAKELGVPLETLLRLAKAILELAKVDKEKARKLVKELLEKMKEAKKAGDKEAALAYLVDAESDALLEVEEAE
# B12: GBRAP_52_6018 (protein)
# chain: MRARLRAFVEEVLALVRAGKLEEAKALIEELVASLNEEEIEVLIDVVAERAAAAAPEDHDAVWRMAEMIAEAMEKAGKDEVLADLLEARVAAALYAAEQR
# B13: GBRAP_117_2577 (protein)
# chain: AEEKEAVKERLRATVRAAGKALAASKTLSPEERAKVRAAVAAEIDAAVREALKVLSKEEVLDIVEEELLDFDAETYFEIMSFVEDAIQKIEDEEEAKRLA
# B14: GBRAP_52_6333 (protein)
# chain: SEEEIEKLAEELVKAIKAGDLEKAKKLAEEAVEKLSSEEILKLAKIVAEKVAKEDDEVHVRFTEIADYLAELVREKKGDEETAAEILGIVATTLYAAELA
# B15: GBRAP_160_4713 (protein)
# chain: SETAEERKKYVDEEFERAKKLIEGETIEQRAIIVEGTVGEIIMEFVEDEKATDELIDEVIEIGDELVKTILENPNLTLEEIKELIDEAREKMKEAIDKHL
# B16: GBRAP_52_6309 (protein)
# chain: MEEEARRLAEEIVALVLAGDREGARALIREIARTKSEEEILLIARELARLAETADAETLDAIAEAMLMMEDVLEEEGVDPEVIAEALGIVTTALYKRELA
# B17: GBRAP_160_4475 (protein)
# chain: SEKVKEAVEEMEEDVEETLEENEDLPPKDLLLAVEVTLGSNLMEWVEKGLLSDEQEDIVIEAMDELRRLREESENMSVEEVKERAREIVREMKARILAAA
# B18: GBRAP_160_4266 (protein)
# chain: SPEREKLIEEIKEDKEEILELIDEITPEEARTLAVVELGSHLMEAIELGLVTDEEEDELMEVIDELEEELEKNKDAPPEVHKEIIEKHYEKAIEILKKAK
# B19: GBRAP_52_6278 (protein)
# chain: SEEEVKKVAEEIVELIKEGKLEEALKLAREAAKKFSLEEVLRLGELLIEQIKELSPEQLELALEVMEELAREIEERFGEEEEASILEARAAAAAYENLQR
# Target: GABARAP, O95166
# Experiment: median log2 fold change of GCK-ALFA target abundance (FLAG IP / Myc IP barcode read proportion) (log2 ratio); each designed protein is fused to an ALFA-tag nanobody in HEK293 cells to bring the named protein to FLAG-tagged glucokinase (GCK); Myc marks an untargeted standard; higher = target protein stabilised (more abundant)
# Conditions: target protein: 3xFLAG-MCP-GCK-ALFA reporter; HEK293 landing pad (RPLP)
# Outline: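 HEK293 landing-pad cells received a recombined binder library fused to the ALFA nanobody and were induced with 2 μg mL^−1 doxycycline, then transfected with a plasmid encoding a FLAG-tagged target and a Myc-tagged standard. Lysates were collected after 48 h for anti-FLAG and anti-Myc immunoprecipitation, and the circular RNA barcodes were reverse transcribed, amplified and sequenced. Target abundance for each binder is the median log2 ratio of FLAG to Myc barcode read proportions. Barcodes had to reach a proportion of at least 10^−7 in both replicates, each binder needed at least 3 barcodes per replicate, a pseudocount of 10^−6 was applied, and the two replicates were pooled.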
# Sequence of GABARAP, O95166 (O95166 whole entry, the tested form may be a part): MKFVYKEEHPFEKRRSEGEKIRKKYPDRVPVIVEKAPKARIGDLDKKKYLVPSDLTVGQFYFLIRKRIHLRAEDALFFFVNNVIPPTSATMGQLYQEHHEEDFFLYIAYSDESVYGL
row,Binder,median log2 fold change
1,B1,0.127
2,B2,0.0741
3,B3,0.0879
4,B4,0.157
5,B5,-0.126
6,B6,0.233
7,B7,0.256
8,B8,0.211
9,B9,0.392
10,B10,0.23
11,B11,0.276
12,B12,-0.0984
13,B13,0.0186
14,B14,0.239
15,B15,-0.628
16,B16,-0.117
17,B17,-0.285
18,B18,-0.228
19,B19,-0.176
